From PubChem BioAssay AID2101 (National Center for Advancing Translational Sciences (NCATS), 2009)
Among all 330,000 compounds or so, about 300 (0.091%) were called active. The inconclusive results got no clear call from the source; some entries with a clear call stand among them for comparison. The call rests on the fitted dose curve; in most records, active means well fitted inhibition curve with a large enough effect; inconclusive means small, poorly fitted or top-dose-only effect, or effect the other way, or another doubt; inactive means no such curve, though single readings can be large or run the other way. Potencies of inconclusive entries are left out as doubtful fits.
Potency means the concentration at half of the fitted maximal effect.
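Wherever activity change, negative = inhibition is given: 0% = full enzyme activity and -100% = no enzyme basal.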

These compounds were tested against Lysosomal acid glucosylceramidase (Homo sapiens) (UniProt P04062) (assay: qHTS Assay for Inhibitors and Activators of N370S glucocerebrosidase as a Potential Chaperone Treatment of Gaucher Disease). Conditions: N370S GC spleen homogenate, 4MU-glucoside fluorescence; activity change, negative = inhibition: at 59.4 µM (top of the series) unless noted.
With O=C(COc1cc(Cl)c(Cl)cc1Cl)Nc1ccncc1 the Potency was inconclusive [inhibitor, single point]. With Cc1ccc(C(c2nnnn2C(C)(C)C)N(Cc2ccco2)Cc2cccs2)cc1 (stereo not drawn) the Potency was inconclusive [activator, partial curve]. For COC(=O)c1ccc(C2/C(=C(\O)c3cccc(OC)c3)C(=O)C(=O)N2CCCN2CCOCC2)cc1 (stereo not drawn), the Potency was inconclusive [inhibitor, single point]. O=C(NCC(Cl)c1ccc2ccccc2c1)c1c(F)cccc1F (stereo not drawn) was tested, and the Potency was inconclusive [inhibitor, partial curve, poor fit]. In the case of COc1ccc(-n2c(SCCNCCO)nc3sc4c(c3c2=O)CCCC4)cc1, the Potency was inconclusive [inhibitor, partial curve, poor fit]. In the case of O=S(=O)(/N=C(\Sc1ccccc1)c1ccccc1)c1ccc(Cl)cc1, the Potency was “inactive”. CN1CCN(C(=O)CSc2nc(-c3cccs3)cc(-c3cccs3)c2C#N)CC1 was tested, and the Potency was inconclusive [inhibitor, partial curve, poor fit]. For N#Cc1nc(-c2ccco2)oc1N1CCC(Cc2ccccc2)CC1, the Potency was inconclusive [activator, partial curve, poor fit]. For Cc1cc(C)nc(N/N=C/c2ccccc2OCc2ccc(Br)cc2)n1, the Potency was inconclusive [inhibitor, partial curve]. In the case of O=C(NCc1ccccc1)c1c[nH]c2ccccc2c1=O, the Potency was inconclusive [activator, single point]. For Cc1ccc(OCC(=O)N/N=C/C=C/c2ccco2)cc1C, the Potency was “inactive”. For Cc1c(CCC(=O)NC2CC2)c(=O)oc2c(C)c(O)ccc12, the Potency was inconclusive [activator, partial curve]. For Cc1cc(OC(C)C)c2c(-c3ccccc3)cc(=O)oc2c1, the Potency was inconclusive [activator, single point]. For COCCOC(=O)C1=C(C)N=C2SCCC(=O)N2C1c1cccs1 (stereo not drawn), the Potency was inconclusive [inhibitor, single point]. In the case of COc1cccc(-c2cc(C(=O)Nc3ccncc3)c3ccccc3n2)c1, the Potency was “inactive”. In the case of Cc1cc(=O)oc2cc(OCC3CC(c4ccccc4)=NO3)ccc12 (stereo not drawn), the Potency was inconclusive [activator, partial curve]. For Cc1cccc(N(C(=O)c2snc(C(N)=O)c2N)C(C(=O)NC2CCCC2)c2ccco2)c1 (stereo not drawn), the Potency was inconclusive [activator, partial curve]. O=c1c(C(c2ccc(O)cc2)c2c(O)nc3n(c2=O)CCS3)c(O)nc2n1CCS2 was tested, and the Potency was “inactive”. With CSc1ccc(COC(=O)c2cc([N+](=O)[O-])ccc2N2CCOCC2)cc1 the Potency was inconclusive [activator, single point]. For Cc1onc(-c2c(F)cccc2Cl)c1C(=O)NC1=NCCS1, the activity change, negative = inhibition was inconclusive: 28.4% [activator]. For CCOc1cccc2sc(N(CCCN(C)C)C(=O)c3ccc(S(=O)(=O)N4CCCCCC4)cc3)nc12, the Potency was inconclusive [inhibitor, partial curve]. With [O-][n+]1c2cc(C(F)(F)F)ccc2c2n1CCN=C2c1ccc(Cl)cc1 the Potency was inconclusive [inhibitor, partial curve]. In the case of C/C(=N\NC(=O)c1ccc(C)cc1C)c1ccc2c(c1)Nc1ccccc1S2, the Potency was “inactive”. COc1ccc2cc(OCC(=O)NNC(=O)Nc3ccc(F)cc3)ccc2c1 was tested, and the Potency was inconclusive [activator, single point]. COc1ccccc1C1/C(=C(/O)c2ccccc2)C(=O)C(=O)N1CC(C)C (stereo not drawn) was tested, and the Potency was “inactive”. In the case of COc1ccc(NS(=O)(=O)c2ccc(NS(=O)(=O)c3ccc(SC)cc3)cc2)c(OC)c1, the Potency was inconclusive [activator, single point]. For COc1ccc(N/C(C)=C/C(=O)c2ccccc2)cc1, the Potency was “inactive”. O=C(O)CN(CC(=O)O)c1ccccc1OCCOc1ccccc1N(CC(=O)O)CC(=O)O was tested, and the Potency was “inactive”. With CCCCNC(=O)CSc1nc(COc2ccccc2)nc2ccccc12 the Potency was inconclusive [activator, single point]. With Cc1ccc(-c2nnn(CC(=O)N(CC3CCCO3)C(C(=O)NC3CCCC3)c3ccc(O)cc3)n2)o1 (stereo not drawn) the Potency was inconclusive [inhibitor, partial curve]. COc1ccc2cc3cc(C(=O)NCCCN4CCC(C)CC4)oc3nc2c1 was tested, and the Potency was inconclusive [activator, partial curve]. C/C(N)=C(/C#N)C(=O)COC(=O)c1ccccc1Oc1ccccc1 was tested, and the Potency was inconclusive [inhibitor, partial curve]. For Cc1cc(=O)oc2c(C(=O)/C=C/c3ccccc3)c(O)ccc12, the Potency was inconclusive [activator, partial curve, poor fit]. For CCOCCOC(=O)C(C)Oc1ccc(Oc2ncc(C(F)(F)F)cc2Cl)cc1 (stereo not drawn), the Potency was “inactive”. For c1ccc2c(Nc3ccncc3)nc(-c3ccc4c(c3)OCO4)nc2c1, the Potency was inconclusive [inhibitor, partial curve]. With O=C(NCC1CCOCC1)c1ccc2nc(Cc3cccc(Cl)c3)oc2c1 the Potency was inconclusive [activator, partial curve]. With CN1CCN(S(=O)(=O)c2ccc(Sc3nnnn3-c3ccccc3)c([N+](=O)[O-])c2)CC1 the Potency was “inactive”. In the case of Cc1ccc(CN2CCSc3ccc(C(=O)NCc4ccccn4)cc32)cc1, the Potency was inconclusive [activator, partial curve]. With CCCCCCn1c(=O)c(Cc2ccccc2)c(O)c2ccccc21 the Potency was inconclusive [activator, partial curve]. For O=C(Nc1ccc([N+](=O)[O-])cc1)c1ccccc1F, the Potency was “inactive”. For O=C(Nc1ccc(Cl)cc1)Nc1nc(-c2sccc2Br)cs1, the Potency was “inactive”. In the case of COc1ccc(NC(=S)NNc2ccc([N+](=O)[O-])cc2S(=O)(=O)Nc2ccc(C)cc2C)cc1, the Potency was active: 22.4 µM. For Cc1ccc(-c2nc(N)sc2CC(=O)OCC(=O)NCCC(C)C)cc1, the Potency was inconclusive [inhibitor, single point].
